Experimental data reported in PubChem BioAssay AID1466 (National Center for Advancing Translational Sciences (NCATS), 2008).
The campaign covered roughly 200,000 compounds. About 10 (0.005%) were called active. Inconclusive results, whose numbers are uncertain, are shown with a selection of clear calls. Calls come from the whole dose curve; as a rule, active = well fitted inhibition curve with a large enough effect; inconclusive = small, poorly fitted or top-dose-only effect, or effect the other way, or another doubt; inactive = no such curve, though single readings can be large or run the other way. Potencies beside an inconclusive call are fits to weak or partial responses and may not hold up.

Molecular target: Lysosomal alpha-glucosidase (Homo sapiens) (UniProt P10253)
Experiment: qHTS Assay for Inhibitors of Human alpha-Glucosidase as a Potential Chaperone Treatment of Pompe Disease;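 for activity change, negative = inhibition: plate controls were uninhibited enzyme wells for no effect and no-enzyme background for full effect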
Settings: purified human GAA, 4-MU-alpha-glucoside fluorescence; activity change, negative = inhibition: at 76.9 µM (top of the series) unless noted
Method in brief: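 Fluorogenic assay: 4 nM human alpha-glucosidase with 400 uM 4-methylumbelliferyl-alpha-D-pyranoside in 50 mM citrate/phosphate, 0.005% Tween-20, pH 5.0, 20 min at room temperature. Compounds tested up to 77 uM; AC50 from Hill fits.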
Potency is the fitted concentration of half-maximal effect; tags give direction and shape of the fitted curve.

Row | SMILES | Potency | activity change, negative = inhibition
1 | Clc1cc2nc3ccccn3c2cc1Cl | inconclusive: 25.1 µM [activator, partial curve] | –
2 | CC12CCC(C(=O)N(CSC(=S)N/N=C\c3ccccc3)C1=O)C2(C)C (centres undefined) | inconclusive: 0.891 µM [inhibitor, full curve] | –
3 | Clc1ccc(-c2nc3ccccc3nc2-c2ccccc2)cc1 | inconclusive: 4.47 µM [inhibitor, partial curve, poor fit] | –
4 | Cc1ccccc1OCC(=O)Nc1cccc2nsnc12 | inconclusive: 50.1 µM [activator, single point] | –
5 | CCCC1=C(C(=O)OCC)C(/C=C/c2ccccc2)n2ncnc2N1 (centres undefined) | – | inconclusive: 13% [activator]
6 | Cc1cc(N2CCOCC2)n2nc(-c3cccc(F)c3)cc2n1 | inconclusive: 28.2 µM [activator, single point] | –
7 | COc1cccc(-n2sc3c(c2=S)-c2cc(OC)ccc2NC3(C)C)c1 | inactive | –
8 | CCN(CC)CCCNc1ncnc2ccccc12 | inconclusive: 0.891 µM [inhibitor, full curve, poor fit] | –
9 | Cc1ccc2nc(-c3ccc(N4C(=O)CC(N5CCN(CCO)CC5)C4=O)cc3)sc2c1 (centres undefined) | inactive | –
10 | COCCNC(=O)/C(C#N)=C\c1ccc(CNC(=O)C(=O)Nc2ccc(C)c(C)c2)o1 | inconclusive: 31.6 µM [inhibitor, single point] | –
11 | COc1ccccc1NC(=S)NNC(=O)c1nn(C)cc1Cl | – | inconclusive: -19.7% [inhibitor]
12 | CCOC(=O)CNC(=O)CCCCCC(=O)NCC(=O)OCC | inconclusive: 11.2 µM [inhibitor, single point] | –
13 | CC(C)OC(=O)CSc1nnc2c3ccccc3n(C)c2n1 | – | inconclusive: 16.4% [activator]
14 | CC(C)(C)c1nc(S(=O)(=O)c2ccc(Cl)cc2)c(N2CCOCC2)o1 | – | inconclusive: 7.88% [activator]
15 | COCc1c(C(=O)N2CCN(c3ccc(C(F)(F)F)cn3)CC2)oc2ccccc12 | inconclusive: 50.1 µM [inhibitor, single point] | –
16 | O=S(=O)(c1ccccc1)c1nc(-c2ccccc2)oc1N1CCOCC1 | – | inconclusive: 15.5% [activator]
17 | COc1ccc(CC(=O)Nc2ccccc2Oc2ccccc2)cc1 | – | inconclusive: -20.5% [inhibitor]
18 | Cc1cc(NC(=O)CCC(=O)N(CC(=O)NC2CCCC2)Cc2ccc3c(c2)OCO3)no1 | – | inconclusive: 15.7% [activator]
19 | Cc1ccc(S(=O)(=O)N2CCN(C(=O)c3nn(C(C)C)c(=O)c4ccccc34)CC2)cc1C | inconclusive: 35.5 µM [inhibitor, partial curve, poor fit] | –
20 | CC(C)N(C)C(=O)CCc1nnc(CCc2c[nH]c3ccccc23)o1 | inconclusive: 0.891 µM [inhibitor, full curve, poor fit] | –
21 | COC(=O)C1=C(C)N=c2s/c(=C/c3cccs3)c(=O)n2C1c1cccs1 (centres undefined) | inconclusive: 50.1 µM [inhibitor, single point] | –
22 | Cc1cc(-c2ccccc2)[nH]c(=O)c1S(=O)(=O)c1ccccc1 | inconclusive: 28.2 µM [activator, single point] | –

Row | SMILES | Potency | activity change, negative = inhibition
23 | COc1cc(NC(=S)N2CCN(Cc3ccccc3)CC2)cc(OC)c1 | inconclusive: 28.2 µM [inhibitor, partial curve] | –
24 | Cc1ccc(N(CC(=O)N/N=C/c2cc(C)n(-c3ccccc3C)c2C)S(C)(=O)=O)cc1 | inconclusive: 50.1 µM [inhibitor, single point] | –
25 | c1ccc2c(-c3csc(-c4ccncc4)n3)c[nH]c2c1 | – | inconclusive: 13.2% [activator]
26 | O=C(NCc1ccccn1)C(=O)NN=C1CCCCCCC1 | inactive | –
27 | Cc1ccc(NC(=O)Cn2cccc2)c(C)c1 | – | inconclusive: -15.8% [inhibitor]
28 | COc1ccc(C2=CC(c3ccco3)n3ncnc3N2)cc1 (centres undefined) | inconclusive: 20 µM [activator, partial curve] | –
29 | Clc1ccc(Cn2ncc3c(NCc4ccccc4)ncnc32)cc1 | inconclusive: 35.5 µM [inhibitor, single point] | –
30 | CN(C)c1ccc(-c2nnc(-c3cccs3)o2)cc1 | inconclusive: 28.2 µM [activator, single point] | –
31 | O=C(COc1ccc2ccc(=O)oc2c1)N1CCc2ccccc21 | inconclusive: 44.7 µM [activator, partial curve] | –
32 | COCc1cc(=O)[nH]c(-c2ccc(C(F)(F)F)cc2)n1 | inactive | –
33 | CN(C)c1ccc(C2C3C(=O)NC(=O)C3ON2c2ccc(Cl)cc2)cc1 (centres undefined) | – | inconclusive: -16.2% [inhibitor] [at 15.4 µM]
34 | COCCn1c(SCC(=O)N2CCCC2)nnc1-c1ccoc1C | inconclusive: 7.08 µM [inhibitor, partial curve, poor fit] | –
35 | COC(=O)CC1C(=O)NCCN1C(=O)Nc1cccc(Cl)c1 (centres undefined) | – | inconclusive: 6.11% [activator]
36 | N#Cc1ccc2c(c1)nc1ccccn12 | inconclusive: 35.5 µM [activator, partial curve] | –
37 | Cc1ccc(Nc2c(-c3ccc(N4CCOCC4)cc3)nc3ncccn23)c(C)c1 | inactive | –
38 | Cc1ccc(C)c(NC(=O)CCC(=O)N/N=C2/CC(=O)CC(C)(C)C2)c1 | – | inconclusive: 4.3% [activator]
39 | COc1ccccc1C(=O)Nc1sc2c(c1C(=O)NCc1ccco1)CCCC2 | inconclusive: 28.2 µM [activator, single point] | –
40 | CCOC(=O)C1CCN(C(=O)/C=C/c2ccc(OC)cc2)CC1 | inconclusive: 20 µM [inhibitor, single point] | –
41 | CCOc1ccc2nc(SCC(=O)NC(=O)C(C)C)sc2c1 | inconclusive: 35.5 µM [inhibitor, single point] | –
42 | C/C(=N\NC(=S)Nc1cccc(C)c1)c1ccco1 | – | inconclusive: 14.3% [activator]
43 | O=C(Nc1ccc2sccc2c1)c1cccc(N2C(=O)CCC2=O)c1 | inconclusive: 50.1 µM [inhibitor, single point] | –
44 | CC(C)(C)c1ccc(OCC(=O)NNC(=O)C2CCCO2)cc1 (centres undefined) | – | inconclusive: 21.9% [activator]
